In all, about 150,000 compounds went through this assay and about 540 (0.36%) showed an effect of 50% or more. This is one part of the list.
System: Plasmodium falciparum
Experiment: Primary screen in NF54 nanoGlo assay, in single point, at 2uM, 72h; a lower Z score goes with more inhibition
Assay type: functional, Erythrocyte
Conditions: timepoint 72 hour

Structure (SMILES)	% Inhibition [%]	Z score
O=C(Cc1ccc(N2CCNC2=O)cc1)N1CC[C@H](c2ccccc2F)C1	-18	3.1
O=C(NC1CCN(c2cc(NCC3CC3)ncn2)CC1)c1ccoc1	7	-1.2
CNC(=O)CCCNC(=O)N[C@@H](CCOC)COC	-7	1.26
Cc1cc(C(F)(F)F)nc(CCNc2nc(N)nc3c2CCNC3)n1	-7	1.08
COc1ccc2c(c1)c(CN1CCC[C@H](N(Cc3cccnc3)C(=O)C3CCC3)C1)cn2C	0	0.05
COCCN1CC[C@H](CN(C)Cc2ccccc2OCCCCN2CCCCC2)C1	6	-1.39
Cc1sc2nc(-c3ccccn3)nc(NCCc3nccn3C)c2c1-c1ccccc1	71	-14.01
CNc1nc(N[C@H]2C[C@@H](c3cc(N4CCOCC4)ncn3)C2)ncc1F	-9	1.61
CC(C)[C@H](NC(=O)OCc1ccccc1)C(=O)N1CC=C(c2c[nH]c3cc(F)ccc23)CC1	0	-0.03
CC(O)CC1CCCN1C(=O)CC1(O)CCCCC1 (centres undefined)	-3	0.48
O=C(CCCc1c[nH]c2ccccc12)N[C@H]1CCCN(Cc2cccc(O)c2)C1	-9	1.51
CN(Cc1cn[nH]c1-c1ccccc1)C[C@]1(O)CCCN2CCCC[C@@H]21	-8	1.38
Cc1cc(Br)c2c(c1)C(c1c[nH]c3ccccc13)(c1c[nH]c3ccccc13)C(=O)N2C	-4	0.72
c1csc(-c2ccnc(N[C@H]3CO[C@H]4[C@@H]3OC[C@@H]4NCC3CCCCC3)n2)c1	-8	1.22
N#Cc1ccccc1Oc1ccc(NC(=O)[C@H](Cc2c[nH]c3ccccc23)NC(N)=O)cc1	-4	0.87
O[C@@H](CNc1ncc(F)c(-c2ccsc2)n1)COCC1CC1	-8	1.17
CNc1nc(NCC[C@H]2CCCCN2C(C)C)ncc1F	-2	0.4
Oc1ccc(Br)c(CNC2CCN(C3CC3)CC2)c1	12	-2.22
Cc1nc(N2CCN(C)CC2)cc(N2CCN(S(=O)(=O)c3ccccc3C(F)(F)F)CC2)n1	42	-7.34
Cc1cncc(-c2ccc(F)c(CN3CCNCC3)c2)c1	-7	1.44
CCCN(CCC1=CCCCC1)C(=O)[C@H]1CCc2nn(C)c(=O)n2C1	-8	1.59
CCCc1cc(NC2CCCC2N(C)C)nc(C)n1 (centres undefined)	5	-0.9

From ChEMBL document CHEMBL5308541, “MAIP: An Open-Source Tool to Enrich High-Throughput Screening Output and Identify Novel, Druglike Molecules with Antimalarial Activity” (ACS Med Chem Lett, 2023)
